Reference: a compilation of properties of binary mixtures (doi:10.1002/aic.14507)
Some of these densities may be calculated back from excess volumes.

Experiment: xn = mol fraction of the nth substance listed
Conditions: 100 kPa

SMILES	mass density (313 K, x1 = 0.5482) [kg/m3]	mass density (318 K, x1 = 0.5482) [kg/m3]	mass density (323 K, x1 = 0.5482) [kg/m3]	mass density (303 K, x1 = 0.4462) [kg/m3]	mass density (303 K, x1 = 0.6298) [kg/m3]	mass density (313 K, x1 = 0.0098) [kg/m3]	mass density (313 K, x1 = 0.0219) [kg/m3]	mass density (313 K, x1 = 0.037) [kg/m3]	mass density (313 K, x1 = 0.1184) [kg/m3]	mass density (313 K, x1 = 0.1728) [kg/m3]	mass density (313 K, x1 = 0.4462) [kg/m3]	mass density (313 K, x1 = 0.6298) [kg/m3]	mass density (318 K, x1 = 0.4462) [kg/m3]	mass density (318 K, x1 = 0.6298) [kg/m3]	mass density (323 K, x1 = 0.4462) [kg/m3]	mass density (323 K, x1 = 0.6298) [kg/m3]
CCCCCCCCn1cc[n+](C)c1.F[B-](F)(F)F + O	1082.2	1077.9	1073.7													
CCCC[n+]1ccn(C)c1.O=[N+]([O-])[O-] + O				1134.7	1147.9	1005.9	1019.9	1035.2	1083.2	1100.9	1128	1141.4	1124.7	1138.2	1121.4	1135
